57 molecules from paper PMC4336329 (PLoS ONE, 2015) can be followed below.

Screen size: about 310,000 compounds; about 2,200 (0.71%) showed an effect of 50% or more. Effects have a minus sign here. The list shows a part of the results.

In the experiment the target is human ether-à-go-go-related gene (hERG) potassium channel (human, UniProt Q12809). Briefly: primary screen, population patch clamp on CHO cells stably expressing hERG.
Chain of human ether-à-go-go-related gene (hERG) potassium channel (Q12809 whole entry, looked up): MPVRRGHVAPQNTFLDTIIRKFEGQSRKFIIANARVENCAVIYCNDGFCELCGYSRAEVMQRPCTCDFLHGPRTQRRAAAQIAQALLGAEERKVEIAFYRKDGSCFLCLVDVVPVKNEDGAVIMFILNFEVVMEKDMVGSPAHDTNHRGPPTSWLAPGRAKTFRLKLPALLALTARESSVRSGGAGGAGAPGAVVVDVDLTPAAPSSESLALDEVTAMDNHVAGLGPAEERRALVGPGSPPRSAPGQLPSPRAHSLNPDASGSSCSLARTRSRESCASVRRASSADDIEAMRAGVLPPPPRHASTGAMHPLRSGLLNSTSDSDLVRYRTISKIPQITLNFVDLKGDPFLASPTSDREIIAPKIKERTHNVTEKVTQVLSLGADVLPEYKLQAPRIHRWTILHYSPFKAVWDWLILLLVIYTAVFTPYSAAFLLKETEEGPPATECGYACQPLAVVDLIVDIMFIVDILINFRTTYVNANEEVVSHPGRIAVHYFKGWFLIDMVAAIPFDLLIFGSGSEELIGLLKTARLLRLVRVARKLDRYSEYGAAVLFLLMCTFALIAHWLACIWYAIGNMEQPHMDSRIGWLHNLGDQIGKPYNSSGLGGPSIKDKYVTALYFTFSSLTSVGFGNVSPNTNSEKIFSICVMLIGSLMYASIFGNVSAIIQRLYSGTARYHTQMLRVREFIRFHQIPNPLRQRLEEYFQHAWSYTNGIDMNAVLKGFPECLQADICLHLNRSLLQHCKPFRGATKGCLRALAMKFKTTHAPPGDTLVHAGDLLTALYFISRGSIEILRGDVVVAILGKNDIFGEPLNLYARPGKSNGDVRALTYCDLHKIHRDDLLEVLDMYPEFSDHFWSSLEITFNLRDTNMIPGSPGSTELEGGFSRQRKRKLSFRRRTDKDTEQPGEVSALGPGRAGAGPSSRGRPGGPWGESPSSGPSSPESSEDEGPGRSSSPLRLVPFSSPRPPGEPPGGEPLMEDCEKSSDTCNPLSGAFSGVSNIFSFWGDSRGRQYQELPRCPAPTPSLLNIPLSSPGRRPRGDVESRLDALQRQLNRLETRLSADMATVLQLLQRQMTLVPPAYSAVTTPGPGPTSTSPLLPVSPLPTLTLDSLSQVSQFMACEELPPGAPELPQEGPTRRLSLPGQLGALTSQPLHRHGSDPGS
In the case of `Cc1cccc(-c2cc(C(=O)N/N=C/c3cccnc3)c3ccccc3n2)c1`, the “hERG current change (%, negative = inhibition) at 1uM” value was 4.91%. Take `C/C(=N\NC(=O)c1cc2ccccc2cc1O)c1cc2ccccc2o1`: the “hERG current change (%, negative = inhibition) at 1uM” value turned out to be 10.5%.

Turning to `CC(C)C(=O)N1CCN(c2ccc(NC(=O)c3ccco3)cc2Cl)CC1`, the “hERG current change (%, negative = inhibition) at 1uM” value stood at 8.51%. `Cc1cccn2c(=O)c(C=O)c(Nc3ccc(S(N)(=O)=O)cc3)nc12`: the “hERG current change (%, negative = inhibition) at 1uM” value was determined as 6.17%. The same measure for `CCn1cc(C(=O)NCCc2ccc(C)cc2)c(=O)c2cc(S(=O)(=O)N(C)C)ccc21`: 9.74%; for `O=C(COc1ccc(S(=O)(=O)Nc2ccc(Cl)cc2)cc1)N1CCOCC1`: -3.99%. Regarding `CN1C(=O)C2(OCC(COc3ccc(Cl)cc3)O2)c2ccccc21` (stereo not drawn), the “hERG current change (%, negative = inhibition) at 1uM” value is recorded as 13.7%. In the case of `C=CCn1cc(-c2cccc(Cl)c2)cc(C#N)c1=O`, the “hERG current change (%, negative = inhibition) at 1uM” value is listed as 12%. Regarding `CC(=O)C1CCC2C3CCC4CC(O)CCC4(C)C3CCC12C` (stereo not drawn), the “hERG current change (%, negative = inhibition) at 1uM” value was 10.8%.

In the case of `O=C(/C=C/c1cccc(F)c1)N1CCc2ccccc21`, the “hERG current change (%, negative = inhibition) at 1uM” value turned out to be 12.5%. Take `COc1ccccc1C(=O)NNC(=O)c1csc(N2CCOCC2)n1`: the “hERG current change (%, negative = inhibition) at 1uM” value came out at 10.8%. With `C/C(=N/NC(=O)CCc1c(C)n[nH]c1C)c1cccc([N+](=O)[O-])c1` the figure was 14%. For the molecule `O=C(Nc1ccccn1)c1cc(-c2cccnc2)nc2ccc(Br)cc12`, the “hERG current change (%, negative = inhibition) at 1uM” value turned out to be 7.74%. For `COc1ccc(/C=C2\COc3ccccc3C2=O)c(OC)c1`, the “hERG current change (%, negative = inhibition) at 1uM” value was 14.3%. In the case of `COC(=O)c1ccc(CSc2nnc(-c3c[nH]c4ccccc34)n2-c2ccccc2)cc1`, the “hERG current change (%, negative = inhibition) at 1uM” value was determined as 7.08%. In the case of `COc1cc2[nH]c(C(=O)N3CCN(c4ccccc4F)CC3)cc2c(OC)c1OC`, the “hERG current change (%, negative = inhibition) at 1uM” value amounted to 12.7%. With `O=C(CSc1nncc2ccccc12)N1CCCCC1` the figure was 9.98%. Turning to `CCCCCc1c(C)c(C#N)c2nc3ccccc3n2c1-n1ccnc1C`, the “hERG current change (%, negative = inhibition) at 1uM” value was -5.82%.

On to `Cc1ccc(C)c(NC(=O)COC(=O)c2cccc3c2C(=O)c2ccccc2C3=O)c1`, for which the “hERG current change (%, negative = inhibition) at 1uM” value is on record as 10%.

`CCn1c(SCC(=O)N(C)Cc2ccc(OC)c(F)c2)nc2cc(S(N)(=O)=O)ccc21`: the “hERG current change (%, negative = inhibition) at 1uM” value was determined as 9.15%. As to `Cc1ccccc1OCC(=O)Nc1ccccc1C(=O)NC1CC1`, the “hERG current change (%, negative = inhibition) at 1uM” value amounted to 8.41%. As for `O=C(Nc1nc2ccccc2[nH]1)c1cccc(Br)c1`, the “hERG current change (%, negative = inhibition) at 1uM” value is given as 10.8%. Regarding `O=C(CCCCCBr)N1CCC(CC2CC(c3ccc(Cl)cc3)=NO2)(C(=O)NCC2CCCCC2)CC1` (stereo not drawn), the “hERG current change (%, negative = inhibition) at 1uM” value is -37.5%.

For the molecule `CCC(C)N(C)C1CCN(C(=S)Nc2cccc(SC)c2)CC1` (stereo not drawn), the “hERG current change (%, negative = inhibition) at 1uM” value was -17.6%. `CC(C)[C@H](NC(=O)Nc1cccc(C(F)(F)F)c1)C(=O)O`: the “hERG current change (%, negative = inhibition) at 1uM” value came to 11.9%. `CCOC(=O)C1Nc2ccc(Br)cc2C2C=CCC12` (stereo not drawn): the “hERG current change (%, negative = inhibition) at 1uM” value was determined as 11.2%. Turning to `CCOC(=O)C1Cn2c(nc3c(c2=O)C(C)(CC)Cc2ccccc2-3)S1` (stereo not drawn), the “hERG current change (%, negative = inhibition) at 1uM” value was found to be 13.2%.

Consider `Cc1ccccc1NC(=O)C(=O)N/N=C/c1cccc(Br)c1`, for which the “hERG current change (%, negative = inhibition) at 1uM” value is on record as 4.04%. Turning to `COc1ccc(CN2CCCC(C(=O)c3sccc3C)C2)cc1O` (stereo not drawn), the “hERG current change (%, negative = inhibition) at 1uM” value is on record as -32.9%. The same measure for `O=C(C[n+]1cccc(CNC(=O)c2ccc(OC(F)F)cc2)c1)Nc1ccc(F)cc1.[Cl-]`: 6.51%; for `O=C1CC2(CCN(C(=O)COc3ccccc3F)CC2)Oc2ccccc21`: -12.6%; for `CC(C)(C)OC(=O)N1CCCC1C(=O)NCCc1ccccc1` (stereo not drawn): 9.94%.

Take `COc1cccc(CNC(=O)COC(=O)c2c(C)nn(-c3ccccc3)c2Cl)c1`: the “hERG current change (%, negative = inhibition) at 1uM” value came out at 4.31%. In the case of `N#Cc1c(NC(=O)c2ccccc2Cl)n(Cc2ccccc2)c2nc3ccccc3nc12`, the “hERG current change (%, negative = inhibition) at 1uM” value is on record as 11.9%.

As for `COc1cccc(-c2nc(S(=O)(=O)c3ccccc3)c(N3CCOCC3)o2)c1`, the “hERG current change (%, negative = inhibition) at 1uM” value is -1.82%.

In the case of `CC(=O)Cc1ccccc1OC(=O)c1ccco1`, the “hERG current change (%, negative = inhibition) at 1uM” value came to 13.7%. With `COCCOc1ccc(C(F)(F)F)cc1NC(=O)COC(=O)c1c(C)noc1C` the figure was 2.25%; with `Cc1ccc(CNC(=O)C(=O)NCCC2CCCCN2S(=O)(=O)c2ccccc2)cc1` (stereo not drawn), -0.32%; with `COCCNC(=S)N(c1ccccc1)C(C)C`, 1.87%.

Consider `CCOC(=O)N1CCN(C(=O)C2CCCN(S(=O)(=O)c3ccc(F)cc3)C2)CC1` (stereo not drawn), for which the “hERG current change (%, negative = inhibition) at 1uM” value is recorded as 4.93%.

Take `CCCCNC(C(=O)Nc1ccc([N+](=O)[O-])cc1Br)c1ccccc1` (stereo not drawn): the “hERG current change (%, negative = inhibition) at 1uM” value was 10.5%. For the molecule `O=C(Nc1ccccc1)c1cccn(Cc2ccccc2)c1=O`, the “hERG current change (%, negative = inhibition) at 1uM” value is 17.6%. As for `CC(C)c1ccc(NC(=O)Cc2c(C(=O)O)n(C)c3ccccc23)cc1`, the “hERG current change (%, negative = inhibition) at 1uM” value came to 12%. Turning to `O=C1C(Cl)=C(Nc2ccccc2)C(=O)c2ccccc21`, the “hERG current change (%, negative = inhibition) at 1uM” value is 10.6%. On to `COc1ccc(C)cc1NCc1ccc(OC)c(C)c1OC.O=C(O)C(=O)O`, for which the “hERG current change (%, negative = inhibition) at 1uM” value is recorded as -0.016%.

For `Cc1nc2c(C)c(C)c(C)c(C)c2nc1C`, the “hERG current change (%, negative = inhibition) at 1uM” value is reported as 10.2%. Take `O=C(c1ccc(Cn2cc([N+](=O)[O-])cn2)o1)N1N=C(C(F)F)CC1(O)C(F)F` (stereo not drawn): the “hERG current change (%, negative = inhibition) at 1uM” value is reported as -2.42%. For the molecule `Cc1ccn2c(CN3CCOCC3)c(-c3ccccc3)nc2c1`, the “hERG current change (%, negative = inhibition) at 1uM” value was determined as 1.61%. With `Cc1cc[n+](C(C)C(=O)c2ccc(Cl)cc2)cc1.[Br-]` (stereo not drawn) the figure was 6.3%; with `O=C(CN1CCN(S(=O)(=O)c2ccc(F)c(Cl)c2)CC1)N1CCOCC1`, 9.65%. Consider `COc1ccc(/C=C/C2=CC(C)(C)NC(=S)N2)c(OC)c1`, for which the “hERG current change (%, negative = inhibition) at 1uM” value is 22.6%. `Cc1ccc(-c2csc(N(Cc3ccco3)C(=O)c3cccs3)n2)cc1`: the “hERG current change (%, negative = inhibition) at 1uM” value was found to be 6.75%. On to `Cn1ccnc1-c1nc2ccccc2[nH]c1=O`, for which the “hERG current change (%, negative = inhibition) at 1uM” value is listed as 8.2%. Regarding `O=C(NC(c1ccccc1)c1ccccc1)N1CCOCC1`, the “hERG current change (%, negative = inhibition) at 1uM” value amounted to 13.5%. The same measure for `Nc1ccccc1Cl`: 7.83%.

On to `COc1ccc2cc3c(N)nn(C(=O)Cc4ccccc4OC)c3nc2c1`, for which the “hERG current change (%, negative = inhibition) at 1uM” value is given as -4.4%. Take `O=C(Nc1ccnn1C1CCN(C/C=C/c2ccc(F)cc2)CC1)C1CCCC1`: the “hERG current change (%, negative = inhibition) at 1uM” value is listed as -79.3%.
